The results in this text go back to the supplement of paper PMC4967469.

Compound in this test: COc1ncc(-c2ccc3nccc(-c4ccnnc4)c3c2)cc1NS(=O)(=O)c1ccc(F)cc1F [GSK2126458]
The test can be described thus: Viability of human cancer cell lines after 72 h of drug (GDSC screen). The following applies: top dose inferred. Here is the method: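 Human cancer cell lines in 384-well plates, medium with 10% serum, drug for 72 h over a 256-fold dose range (nine 2-fold or five 4-fold steps up to the top dose). Adherent lines were fixed and stained with the nucleic acid dye Syto60, suspension lines read with resazurin; signal relative to control wells, capped at 0 and 100%. One two-parameter sigmoid per drug and line, fitted in a mixed model over all curves with the slope shared within a line.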

By IC50 is meant the dose at which the fit gives 50% viability; fits outside the tested doses are given as limits. AUC is the area under the same curve over the 256-fold range up to the top dose, as a fraction: 1 means no effect, lower means more sensitive. The top dose, if marked as inferred, comes from the curve model; the source does not state it. Bounds are passed on as bounds.

As for “RCC-JW (kidney, adherent, top dose 0.128 µM)”, the AUC was determined as 0.445 and the IC50 was 5.62 nM.

In the case of “RCC-MF (kidney, adherent, top dose 0.128 µM)”, the AUC was 0.617 and the IC50 is 18.5 nM.

Take “RCM-1 (large intestine, adherent, top dose 0.128 µM)”: the AUC was found to be 0.847 and the IC50 turned out to be 126 nM.

Regarding “RD (rhabdomyosarcoma, adherent, top dose 0.128 µM)”, the AUC stood at 0.645 and the IC50 came out at 21 nM.

As to “REH (B-cell leukaemia, suspension, top dose 0.128 µM)”, the AUC amounted to 0.309 and the IC50 stood at 2.39 nM.

For the cell line “RERF-GC-1B (stomach, adherent, top dose 0.128 µM)”, the AUC is 0.779 and the IC50 was 58.5 nM.

With “RERF-LC-KJ (lung adenocarcinoma, adherent, top dose 0.128 µM)”, the AUC was determined as 0.84 and the IC50 was found to be 92.2 nM.

On to “RERF-LC-MS (lung adenocarcinoma, adherent, top dose 0.128 µM)”, for which the AUC was determined as 0.822 and the IC50 was found to be 77.4 nM.

Turning to “RERF-LC-Sq1 (lung squamous cell carcinoma, adherent, top dose 0.128 µM)”, the AUC turned out to be 0.803 and the IC50 was found to be 103 nM.

With “RF-48 (stomach, adherent, top dose 0.128 µM)”, the AUC turned out to be 0.618 and the IC50 worked out at 17.6 nM.

For the cell line “RH-1 (rhabdomyosarcoma, adherent, top dose 0.128 µM)”, the AUC came out at 0.782 and the IC50 was determined as 44.5 nM.

Take “RH-41 (rhabdomyosarcoma, adherent, top dose 0.128 µM)”: the AUC was determined as 0.909 and the concentration for half-maximal inhibition (IC50) worked out at 128 nM.

Regarding “RKN (ovary, adherent, top dose 0.128 µM)”, the AUC stood at 0.477 and the IC50 came to 6.9 nM.

With “RKO (large intestine, adherent, top dose 1.024 µM)”, the AUC turned out to be 0.444 and the IC50 was 45.6 nM.

As for “RL95-2 (endometrium, adherent, top dose 0.128 µM)”, the AUC worked out at 0.958 and the IC50 was greater than 128 nM.

Turning to “RL (B-cell lymphoma, suspension, top dose 0.128 µM)”, the AUC stood at 0.528 and the IC50 amounted to 9.48 nM.

For “RMG-I (ovary, adherent, top dose 0.128 µM)”, the AUC is 0.545 and the IC50 was 10.9 nM.

Regarding “RO82-W-1 (thyroid, adherent, top dose 0.128 µM)”, the AUC was found to be 0.973 and the IC50 is greater than 128 nM.

Regarding “ROS-50 (B-cell leukaemia, suspension, top dose 0.128 µM)”, the AUC was determined as 0.786 and the IC50 is 72.1 nM.

“RPMI-2650 (head and neck, adherent, top dose 0.128 µM)”: the AUC amounted to 0.766 and the IC50 is 50.9 nM.

For the cell line “RPMI-6666 (Hodgkin lymphoma, suspension, top dose 0.128 µM)”, the AUC was found to be 0.357 and the IC50 is 2.96 nM.

In the case of “RPMI-7951 (melanoma, adherent, top dose 0.128 µM)”, the AUC was 0.611 and the half-maximal inhibitory concentration (IC50) stood at 16 nM.

Take “RPMI-8226 (myeloma, suspension, top dose 0.128 µM)”: the AUC is 0.625 and the IC50 was 16.8 nM.

In the case of “RPMI-8402 (T-cell lymphoblastic leukaemia, suspension, top dose 1.024 µM)”, the AUC stood at 0.084 and the IC50 is less than 4 nM.

For the cell line “RPMI-8866 (chronic myeloid leukaemia, suspension, top dose 0.128 µM)”, the AUC was 0.808 and the IC50 amounted to 60.6 nM.

Turning to “RS4-11 (leukaemia, suspension, top dose 0.128 µM)”, the AUC worked out at 0.161 and the IC50 came to 0.83 nM.

Regarding “RT4 (bladder, adherent, top dose 0.128 µM)”, the AUC worked out at 0.91 and the 50% inhibitory concentration (IC50) was greater than 128 nM.

On to “RT-112 (bladder, adherent, top dose 0.128 µM)”, for which the AUC came out at 0.653 and the concentration for half-maximal inhibition (IC50) is 22 nM.

Turning to “RVH-421 (melanoma, adherent, top dose 0.128 µM)”, the AUC stood at 0.791 and the IC50 was 82.5 nM.

As to “RXF393 (kidney, adherent, top dose 0.128 µM)”, the AUC is 0.773 and the IC50 worked out at 70.2 nM.

For “Raji (Burkitt lymphoma, suspension, top dose 0.128 µM)”, the AUC came to 0.912 and the IC50 is greater than 128 nM.

Consider “Ramos-2G6-4C10 (Burkitt lymphoma, suspension, top dose 0.128 µM)”, for which the AUC stood at 0.484 and the IC50 worked out at 7.27 nM.

Take “SAS (head and neck, adherent, top dose 0.128 µM)”: the AUC is 0.748 and the IC50 stood at 45.5 nM.

Turning to “SAT (head and neck, adherent, top dose 0.128 µM)”, the AUC is 0.735 and the IC50 worked out at 55.5 nM.

As for “SBC-1 (small cell lung carcinoma, suspension, top dose 0.128 µM)”, the AUC stood at 0.661 and the half-inhibitory concentration (IC50) turned out to be 22 nM.

“SBC-3 (small cell lung carcinoma, adherent, top dose 0.128 µM)”: the AUC worked out at 0.267 and the half-maximal inhibitory concentration (IC50) was found to be 1.87 nM.

“SBC-5 (small cell lung carcinoma, adherent, top dose 0.128 µM)”: the AUC was 0.965 and the IC50 is greater than 128 nM.

On to “SCC-3 (B-cell lymphoma, suspension, top dose 0.128 µM)”, for which the AUC is 0.898 and the IC50 stood at 81.5 nM.

Regarding “SCC-4 (head and neck, adherent, top dose 0.128 µM)”, the AUC was found to be 0.857 and the IC50 is greater than 128 nM.

“SCC-9 (head and neck, adherent, top dose 0.128 µM)”: the AUC turned out to be 0.392 and the half-inhibitory concentration (IC50) stood at 3.7 nM.

Consider “SCC-15 (head and neck, adherent, top dose 0.128 µM)”, for which the AUC was 0.587 and the IC50 is 15 nM.

As for “SCC-25 (head and neck, adherent, top dose 0.128 µM)”, the AUC came to 0.611 and the IC50 was found to be 16.8 nM.

As to “SCH (stomach, adherent, top dose 0.128 µM)”, the AUC amounted to 0.969 and the IC50 is greater than 128 nM.

Turning to “SF126 (glioma, adherent, top dose 0.128 µM)”, the AUC came out at 0.693 and the IC50 amounted to 28.8 nM.

For “SF268 (glioma, adherent, top dose 0.128 µM)”, the AUC came to 0.743 and the IC50 is 42.4 nM.

For “SF295 (glioma, adherent, top dose 0.128 µM)”, the AUC came to 0.627 and the IC50 turned out to be 18.4 nM.

With “SF539 (glioma, adherent, top dose 0.128 µM)”, the AUC was 0.683 and the IC50 is 24.5 nM.

For the cell line “SH-4 (melanoma, adherent, top dose 0.128 µM)”, the AUC worked out at 0.781 and the IC50 was 88.3 nM.

For “SHP-77 (small cell lung carcinoma, semi-adherent, top dose 0.128 µM)”, the AUC is 0.844 and the IC50 was 77.5 nM.

For “SIG-M5 (acute myeloid leukaemia, suspension, top dose 0.128 µM)”, the AUC is 0.124 and the IC50 came out at 0.851 nM.

On to “SIMA (neuroblastoma, adherent, top dose 0.128 µM)”, for which the AUC came to 0.859 and the IC50 is greater than 128 nM.

Take “SISO (cervix, adherent, top dose 0.128 µM)”: the AUC came to 0.839 and the IC50 turned out to be 82.5 nM.

Consider “SJRH30 (rhabdomyosarcoma, adherent, top dose 0.128 µM)”, for which the AUC came out at 0.649 and the IC50 is 21 nM.

As for “SJSA-1 (bone, adherent, top dose 0.128 µM)”, the AUC was determined as 0.633 and the IC50 stood at 19.6 nM.

Regarding “SK-CO-1 (large intestine, adherent, top dose 0.128 µM)”, the AUC was 0.925 and the IC50 was greater than 128 nM.

With “SK-ES-1 (Ewing sarcoma, semi-adherent, top dose 0.128 µM)”, the AUC came out at 0.523 and the IC50 was found to be 9.28 nM.

Take “SK-GT-4 (oesophagus, adherent, top dose 0.128 µM)”: the AUC was 0.625 and the IC50 was 19.3 nM.

“SK-HEP-1 (liver, adherent, top dose 0.128 µM)”: the AUC amounted to 0.947 and the 50% inhibitory concentration (IC50) was greater than 128 nM.

As for “SK-LMS-1 (soft tissue, adherent, top dose 0.128 µM)”, the AUC turned out to be 0.597 and the IC50 worked out at 14.6 nM.

As for “SK-LU-1 (lung adenocarcinoma, adherent, top dose 0.128 µM)”, the AUC was found to be 0.873 and the IC50 was greater than 128 nM.

As for “SK-MEL-1 (melanoma, suspension, top dose 0.128 µM)”, the AUC amounted to 0.881 and the IC50 came to 103 nM.

For “SK-MEL-2 (melanoma, adherent, top dose 0.128 µM)”, the AUC turned out to be 0.622 and the half-inhibitory concentration (IC50) turned out to be 17.5 nM.

“SK-MEL-3 (melanoma, adherent, top dose 0.128 µM)”: the AUC was 0.685 and the half-inhibitory concentration (IC50) was found to be 28.7 nM.

Turning to “SK-MEL-5 (melanoma, adherent, top dose 0.128 µM)”, the AUC is 0.814 and the IC50 was 89.8 nM.

Turning to “SK-MEL-24 (melanoma, adherent, top dose 0.128 µM)”, the AUC was 0.983 and the IC50 was greater than 128 nM.

Broadly, the IC50 is the concentration needed to halve the response being measured.
